Measurements as given in the RNAGym collection of RNA variant scans (doi:10.7554/elife.90254).
The source gives no read counts; variants with many changes may rest on few reads.

B1: LINE1-mini (parent)
chain: GGCAGAGCUCAACACAGCGUGGCAAAGUGGCUGUGGCUAGACUGCC

Variants of: B1
Assay: self-cleavage, relative activity (ratio to wild type); higher = more cleavage; in vitro, sequencing; the parent is a self-cleaving ribozyme

Variant | self-cleavage
G33A A41G U43G | 0.01
G30A U34G G36A G44A | 0.02
G44U C45G C46U | 0.04
G30A G36A C45U | 0.15
C31G U34A A41G | 0.02
C31G G36A C37U U43A | 0.28
G30A U34C C42U | 0.05
G30A U32G G35U | 0.03
G30C G33A G35U A41U U43A | 0.04
G36U C37G C42U C46A | 0.01
C37U U38G C45A | 0.01
A41C U43C G44C | 0.05
G33C G35A C42G | 0.01
G33U A39U C45A | 0.01
G36U C37G G40C C45A | 0.06
C31G C42A U43G | 0.03
G30U U32C G33C U34G | 0
G33U U34A C46G | 0.02
G30U C37A G44A | 0.06
U32G A41U C45G | 0.17
G33U G36A A41C | 0.07
G30U G40C G44C | 0.06
U32G U34A U43G C46A | 0
C31G U32C C42A | 0

Variant | self-cleavage
U34A C37A A41C | 0.01
G30C G33U U43G G44U | 0.21
C31A U34C A39C C45A | 0.02
U32A C42G G44A | 0.31
G35A C37U C45U C46A | 0.03
G36C G40A G44U | 0.07
G35U A41U G44C | 0.03
C31A G36C A41C G44U | 0.02
G35U G36A G40U | 0.16
G33U C37U U38G G44U | 0.05
G33A U38A C42U | 0.02
C37A G44C C46U | 0.1
U34A G44C C46A | 0.03
A39G G44U C45A | 0.03
G30U G36A G44C | 0.01
C37G U43C C46G | 0.02
C37G U43C C46A | 0.15
G40C C42A U43C | 0.01
C31U C37A U38A | 0.05
G30C U32G C37U G44U | 0.03
G30U G33U A41U | 0.26
G35U G36A U38A | 0.07
G36A A39C G40C | 0
U34C G35U C37A G40U | 0.18

Variant | self-cleavage
C31U U32A U34A | 0.06
U34A A39C U43C | 0.02
C37G G40C G44U | 0.04
A39U A41U G44A | 0.18
U32C G35U C37U A39U U43C | 0.07
C31U G40U C45U | 0
U32A C37U A41G | 0.03
U32C A39U G40C | 0.01
U32G C37A G40U | 0.01
G33A A39C A41G | 0.02
G33U G36U G44C | 0.03
G36U G44U C45G | 0.04
G33A U34A U38G G40A | 0.11
C31U G35U C37A | 0.03
C37A A39G C46A | 0.02
G30A A39G C46A | 0.15
G29U G44U C45A | 0.21
G35A C37A G40C G44U | 0.02
G35U U38G G44C | 0.05
U32G C37G U38A | 0.03
C37G C42A C46U | 0.12
G30C U34G A39G G44C | 0.07
G30A C31A U32C G33U G44C C45U | 0.01
G29U U38C G40U | 0.05

Variant | self-cleavage
G36U A41U C45G | 0.08
C31A G33U C46A | 0.11
G33A U38G G40A U43C | 0.02
G36A G44A C45A | 0.03
U32A C37G U43A | 0.09
G36U C42A C45A | 0.07
G36U C37U G40U | 0.01
C31G U32C G33C U34G | 0.02
G30C C31U G40U | 0.02
C31U U32C U38C | 0.03
G30U C31A C37U A41G C46A | 0
C31A G33C G36U C37A | 0.29
C31U C42A C45G | 0.01
G40U C42G G44C | 0.04
U34C C37U G44U | 0.02
C37A U38C C42A | 0.03
G30A G33U U43A | 0
C31G U32C A41U | 0.26
G30U A39G C42A | 0.06
G30U C42U U43G G44C | 0.01
G33U U34A G36A | 0
G30A U34A G35C G36U U38A G40U | 0.08
G33A G36A C45G | 0.03
G30C G35A C42A | 0.14

Variant | self-cleavage
C31U G35A G40U | 0
G30U G35A G36U C42U C45A | 0.04
G29U G40U C42G | 0.08
G33C G36A A41U | 0.02
C31A G35C C42A | 0.06
G29U G36U C46A | 0.1
C31G G35A U38C U43G C45U | 0
U32A U38A C46U | 0.07
C31U A39C C42U | 0.02
U32C C42A U43C | 0.08
G29U U38G G44C | 0.02
C31G C37U C46A | 0.02
C31A G33C C37A C45U | 0.08
G33A G36C C37U C42G | 0.02
G30U C31U C46G | 0.03
C31G G33C A41U | 0.04
G29U U38G A41U C46A | 0.02
G40U A41C C46G | 0.11
A41G G44A C46A | 0.04
C31G G35U A39U | 0
G30A C31A G35U | 0.05
U38A U43G C45A | 0
C37U C42G G44A | 0.04
U38C U43G G44C | 0.07

Variant | self-cleavage
C31A G35A C46A | 0.03
C37U A41U U43G | 0.04
C42A U43A C46G | 0.11
C31U U38A A39G C46A | 0.04
G33C G36A G44C | 0.01
G33C C42A G44A | 0.04
C31A A39G C42G | 0.06
A39G G40A A41G | 0.01
C42A C45A C46G | 0.06
C31U G35U G44U | 0.03
G36A A39U G44U C46U | 0.07
G30C G33U A41U C42G | 0.04
A39U G40U C45U | 0.21
U32G C37A C45A | 0.02
G33C G36C C37A | 0.04
U32G U38G C45A | 0.02
G30U G40U C42A | 0.03
G30C U32C G36A C37A | 0.14
G40C U43G C45U | 0.07
C31G G36U U43G C45G | 0.06
G30U G35C A39G | 0.03
G30A C31G G36U | 0.01
C31U G33U G35U G40C G44U C46G | 0
U32A A39G C46A | 0.02

Variant | self-cleavage
U34C C37G U38A | 0.01
G33A U43A C46A | 0.02
U34C G35C U38C | 0.03
G30A G35A G36C U43A | 0.06
C31U G36A G40A | 0.07
G30C U32A A41C C42G | 0.04
G29U U38A G40C | 0.12
U34C A39U G40A | 0.06
G33C G40U C42U | 0.03
C31A U34C U38G | 0
C31A G40C C42A | 0.01
U34C G36U C46U | 0.07
G30A A39G G44C | 0.1
U32G A41G C42G | 0.05
G35C U38C U43C | 0.02
G30U C31A G33U | 0.12
G35C C37A C45G | 0.33
G33U A39C G44U | 0.04
G30A C31U C46A | 0.05
G30U G36A C37A U43A | 0.04
G30U A39G C46A | 0.08
C31G G40U C45U | 0.06
C31U U32C A41C C42A | 0.02
C37A U43G G44C | 0.04

Variant | self-cleavage
G30C G36U A41U | 0.16
G33C G35U C42U | 0.03
G30U U32G A41U C42A | 0.03
C31G U32A G40A G44A | 0.01
G30C G33C C46A | 0.04
C42U C45U C46A | 0.03
G35A U38C A41U U43C G44A | 0.19
G30U A39C G44C | 0.06
C31U A41U U43G | 0.05
U34G U38C G40C | 0.02
G30A A39U C45G | 0.04
C31G G40A C45G | 0.08
G29U U32G A41C C45A | 0.01
U32A G36C C37U | 0.02
U34G G35U U38A | 0.02
C31U U38A C46A | 0.02
C31A A39G C46A | 0.02
G36A A39G G40U | 0.24
U32A U34G U38A | 0.16
G30C G33C G40U | 0.07
G33A A39C G44A C45G | 0.03
G33U G35C C45U | 0.06
G36U C37G U43A | 0.13
G33U U38C G40A | 0.08

Variant | self-cleavage
C37U C45U C46U | 0.04
G30A G35C C45U C46U | 0
C37U A39G C46A | 0.01
U34A C45A C46U | 0.07
U34A G35U G40U U43A | 0
C31U C37U C46U | 0.02
C31U U32A C42U | 0.08
U38A C42G G44U | 0
G33U U43G C46G | 0.03
G29U U34G C46A | 0.04
C37A G40A U43G C46U | 0.11
G35U C37U U43A G44U | 0.01
C31G U32C G40U | 0.02
A39C A41C C46A | 0.06
C37G U38A G40C | 0.02
G30U A41C C45A | 0.02
G36C C37G C45U | 0.05
G33U C42U G44C | 0.03
U32C U38G G40A | 0.06
U32G G33C G44U | 0.08
G30U C31G G44C | 0.06
G29U U32G G40A | 0.13
U34G U38C U43A C45U | 0.07
U32A U34C C46G | 0

Variant | self-cleavage
G29U U34G U38A | 0.41
U32C U34C C37U | 0.03
U32C G33U G40U | 0.12
G36U A39G G44A C45A | 0.02
C31A U38G C42G | 0.09
G30A U34C A39U C46A | 0.19
G35A C37U U38C | 0.05
C37A G40A C45A | 0.04
C31U G40A C42U | 0
G30C G33A U34C | 0.06
C31G G40U U43G | 0.01
U38G A39G C46G | 0.01
G36U C42U C45U | 0
U34G G35U U43G | 0.1
C31G G40U C46G | 0.07
G29U U38A A39C | 0.51
U32A C37A C46U | 0.06
C31A G36A A41G | 0.1
C31U C37A A41G | 0.05
G30A G33A C46A | 0.13
G35U C42A C45U | 0.06
G33U A41G C45U | 0.09
G35C U38A A39U C46U | 0.05
G30A G36U G40U | 0.06

Variant | self-cleavage
G30A G36U G40A | 0.25
C31U U38G A41G | 0.02
C37A G40A A41G | 0.06
G36U G40A C45U | 0.24
U38A A39U A41C C45A | 0.01
G36U U38C A41G | 0.05
C31U G35A C37U | 0.08
U38A C42A C45A | 0.14
C31U U38A C45G | 0.02
C31A U32C G40C | 0.01
C31A G35U A39G | 0.06
U34A G36A G40C | 0.03
C31U U34C C46A | 0.02
U32G C37U C45U | 0
C31U A41U C46U | 0.08
C31G C37A G44A C46U | 0.07
U34C G40U C42A | 0.02
